Molecules are shown by their SMILES. The whole screen tested about 52,000 compounds, of which about 1,700 (3.3%) were called active. No stated cut-off is given here; in the data, active means survival mostly below about 52% (no sharp cut-off); inactive means mostly above about 56%. The list shows a part of the results.

In the experiment the test system is Wild type. Description: growth inhibition of S. aureus wild type versus tarO mutant, primary screen, teichoic acid synthesis inhibitors, RN4220, OD600 (AID 463173). The note with it: S. aureus RN4220 wild type/DeltatarO growth, OD600, 18 h, stronger effect = lower value, screened at 18.75 µg/mL (by protocol).
Consider `CCC(C)C(=O)N1CCCC(c2nc(-c3cccs3)no2)C1` (configuration not stated), for which the survival was inactive: 112%. With `COc1cc(NS(=O)(=O)c2ccc(NC(=O)c3ccccc3C(=O)O)cc2)nc(OC)n1` the figure was inactive: 68%. With `CCCCNC(=O)CSc1nc2nc(C)c(Cc3ccccc3C)c(C)n2n1`, the survival is inactive: 67%. With `CC(=O)Nc1cccc(C(=O)NCc2ccc3c(c2)CCN3C(=O)c2ccccc2)c1` the figure was inactive: 63%; with `CCOc1ccc(CCNC(=O)Cn2nnc(-c3ccccc3)n2)cc1OCC`, inactive: 98%. With `COc1ccc(/C=C/c2nc(C#N)c(NCCc3ccc(OC)c(OC)c3)o2)cc1OC` the figure was inactive: 113%.

Consider `COc1cccc(C(=O)Nc2cc(-c3ccccc3)no2)c1`, for which the survival is inactive: 81%. For `CC(C)CC(=O)Nc1ccc(C(=O)OCc2cc(=O)n3nc(C(C)C)sc3n2)cc1` the value was inactive: 138%. With `COc1ccc(C(=O)N2CC(=O)Nc3ccc(F)cc3C2c2ccc(F)cc2)c(OC)c1` (configuration not stated) the figure was inactive: 79%. For `Cc1cc(C)cc(NS(=O)(=O)c2ccc3[nH]cc(C(=O)N4CCCC4)c(=O)c3c2)c1` the value was inactive: 77%; for `CCOc1ccccc1NC(=O)Cn1cnc2onc(-c3ccc(F)cc3)c2c1=O`, inactive: 82%. Regarding `O=C(OCc1cc(=O)n2nc(C3CC3)sc2n1)c1ccc(F)cc1`, the survival was inactive: 82%. For `Cc1ccc(NC(=O)c2oc3ccccc3c2NC(=O)c2cc3ccccc3o2)cc1` the value was inactive: 70%; for `O=C(CSc1cn(CCNC(=O)c2c(F)cccc2F)c2ccccc12)Nc1ccc2c(c1)OCCO2`, inactive: 72%; for `CC(C)CC(NS(=O)(=O)c1ccc2c(c1)oc(=O)n2C)C(=O)NCCc1ccc(Cl)cc1` (configuration not stated), inactive: 79%. For the compound `COC(=O)c1ccc(NC(=O)c2cc(S(=O)(=O)N3CCc4ccccc43)cn2C)cc1`, the survival is inactive: 101%. With `COc1ccc(-n2c(=O)c3ccc(C(=O)NCc4ccc(C)cc4)cc3n(CC(=O)Nc3ccc(F)cc3)c2=O)cc1` the figure was inactive: 83%; with `O=C(NCc1cccnc1)C1CCN(Cc2cc3ccccc3n2Cc2cccc(Cl)c2)CC1`, inactive: 75%; with `CCCCc1nnc(SCc2cc(=O)c3cc(C(=O)OCC)ccc3[nH]2)n1C`, inactive: 68%. With `O=C(Nc1cccc(C(=O)N2CCN(c3ccc(Cl)cc3)CC2)c1)c1nsc2ccccc12` the figure was inactive: 129%. For `CC1=C(C(N)=O)C(c2cccc(Br)c2)n2nc(SCc3ccccc3)nc2N1` (configuration not stated) the value was inactive: 74%; for `CS(=O)(=O)Nc1ccc2c(c1)OCO2`, inactive: 94%. In the case of `COc1cc(-c2nnc(SCC(=O)Nc3ccc(F)c(Cl)c3)o2)cc(OC)c1OC`, the survival is inactive: 111%. For `Cc1cc(C)n2nc(SCC(=O)Nc3ccccc3)nc2n1` the value was inactive: 76%; for `C=CCSc1nnnn1-c1ccc(OC)cc1`, inactive: 111%; for `Cc1cc(NC(=O)C(C)C)cc(-c2nc3ncccc3o2)c1O`, inactive: 68%.

As for `Cc1ccc2nc(-c3ccc(O)cc3)c(Nc3ccc4c(c3)OCO4)n2c1`, the survival was inactive: 71%. With `C1CN(c2nc(N3CCOCC3)nc(N3CCOCC3)n2)CCN1` the figure was inactive: 108%. For `CC(C)N(Cc1ccccc1)C(=O)CCS(=O)(=O)c1cc2c(cc1Cl)NC(=O)CO2` the value was inactive: 112%; for `Cc1oc(-c2ccc(Cl)cc2)nc1CS(=O)CC(=O)NCc1ccc(Cl)cc1` (configuration not stated), inactive: 84%. Regarding `Cc1cc2nc(-c3cc(NC(=O)c4cc5ccccc5o4)ccc3Cl)oc2cc1C`, the survival was inactive: 72%. For `COc1cccc(C(=O)Nc2ccccc2OCc2cc(=O)n3cc(C)ccc3n2)c1` the value was inactive: 69%; for `CCc1ccc(NC(=O)CSc2nc3n[nH]c(C)c3c(=N)n2-c2ccccc2C)cc1`, inactive: 76%; for `CCCNC(=O)C1CCN(S(=O)(=O)c2ccc3c(c2)CCCN3C(C)=O)CC1`, inactive: 128%. With `CC1CC(C)CN(c2nc3c(c(=O)[nH]c(=O)n3C)n2Cc2ccccc2F)C1` (configuration not stated) the figure was inactive: 108%. `Cc1ccn(C(=O)c2ccc(NC(=O)C3CCCCC3)cc2)n1`: the survival was inactive: 100%. For `COc1ccc(N(CC(=O)NCCc2cccc(C)c2)S(=O)(=O)c2c(C)nn(C)c2C)cc1` the value was inactive: 71%; for `COc1ccccc1N1CCN(C(CNC(=O)C(=O)NCCCN(C)C)c2cccnc2)CC1` (configuration not stated), inactive: 85%; for `CCOC(=O)C1=C(CS(=O)(=O)c2c(C)cc(C)cc2C)NC(=O)NC1c1cccc(OC)c1` (configuration not stated), inactive: 73%.

As to `Cc1ccccc1OCc1nnc(SCc2cc(=O)c3ccccc3[nH]2)n1C`, the survival was inactive: 113%.

As to `N#Cc1c(NC(=O)c2cc3nc(-c4ccc(Br)cc4)cc(C(F)(F)F)n3n2)sc2c1CCCC2`, the survival is active: 0%. On to `O=C1CC(c2ccccc2C(F)(F)F)c2c(c3ccccc3[nH]c2=O)O1` (configuration not stated), for which the survival is inactive: 69%.

On to `CCOc1ccc(-c2c(C)nn3c(C)c(C(=O)Nc4ccccc4C(=O)OC)cnc23)cc1OCC`, for which the survival was active: -6%. For the compound `CC12CCCCN1CCCc1c2[nH]c2ccccc12` (configuration not stated), the survival was inactive: 110%. Regarding `COC(=O)c1cccc(Nc2c(-c3ccc(O)c(OC)c3)nc3nc[nH]n23)c1`, the survival is inactive: 79%.

For `CCOc1ccc2[nH]c(=O)c(CN(Cc3cccnc3)S(=O)(=O)c3ccccc3)cc2c1`, the survival was inactive: 106%. As to `COCc1cc(C)nc2sc3c(c12)NC(c1ccc(O)cc1)N(c1ccc(OC)cc1)C3=O` (configuration not stated), the survival is inactive: 83%. For `CCOc1ccc(NC(=O)C2Cc3ccccc3N2C(=O)c2ccccc2)cc1` (configuration not stated) the value was inactive: 80%. With `CCOC(=O)c1cnc(SC2CCc3ccccc3C2=O)nc1N` (configuration not stated) the figure was inactive: 115%; with `COc1ccc2c(c1)CCc1c(C(=O)Nc3cc(C)ccc3O)noc1-2`, inactive: 96%; with `CC(C)NC(=O)CSc1nc2ccccc2n1CC(=O)N1CCOCC1`, inactive: 108%. Turning to `CCCCOc1ccc(CNC(=O)C2CCN(c3nnc(-n4cccc4CNc4ccc(C)cc4)s3)CC2)cc1`, the survival was inactive: 93%.

Take `COCCn1c(C)cc(O)c(C(c2ccccc2)N2CCN(C)CC2)c1=O` (configuration not stated): the survival is inactive: 87%. As for `Cc1cccc(NC(=O)CSc2nc3ccc(NC(=O)c4ccco4)cc3s2)c1`, the survival is inactive: 67%. On to `COc1cc(Cn2c(=O)sc3ccccc32)ccc1OC(C)C`, for which the survival was inactive: 41%. For `Cc1ccc(-c2nc3cc(C(C)C)ccc3o2)cc1NC(=O)c1cccs1` the value was inactive: 72%.

With `COc1cccc(NC(=O)CCNS(=O)(=O)c2ccc(Br)s2)c1`, the survival is inactive: 71%.

The record behind these values is PubChem BioAssay AID463173 (ICCB-Longwood Screening Facility, Harvard Medical School, 2010).
